Measured values from the antibiotic and cytotoxicity screens of Wong et al. (2023).
The other results are listed elsewhere or left out.

Each compound was assayed on HSkMC (human skeletal muscle cells) (assay: cytotoxicity call (relative viability < 0.9)). Conditions: 10 µM.
With `COc1ccc(S(=O)(=O)N(C)C[C@H]2Oc3ccc(NC(=O)Nc4c(C)noc4C)cc3C(=O)N([C@@H](C)CO)C[C@@H]2C)cc1` the cytotoxicity call was “inactive”. With `COc1ccc(OCCC(=O)NN)cc1` the cytotoxicity call was “inactive”. With `Cc1ccc(S(=O)(=O)N[C@H]2C=C[C@@H](CC(=O)NCCN3CCCCC3)O[C@H]2CO)cc1` the cytotoxicity call was “inactive”. With `COCC(=O)Nc1ccc2c(c1)OC[C@@H](C)N(C(=O)Cc1cccnc1)C[C@H](C)[C@@H](OC)CN(C)C2=O` the cytotoxicity call was “inactive”. With `C[C@@H]1CCCCO[C@H](CN(C)CC2CC2)[C@H](C)CN([C@@H](C)CO)C(=O)c2cc(NC(=O)NC3CCCCC3)ccc2O1` the cytotoxicity call was “inactive”. With `C[C@@H]1CN([C@H](C)CO)C(=O)c2cc(/C=C/c3ccccc3)cnc2O[C@H]1CN(C)S(=O)(=O)c1cn(C)cn1` the cytotoxicity call was “inactive”. With `COCCNC(=O)C[C@@H]1CC[C@@H]2[C@H](COC[C@@H](O)CN2C(=O)Nc2ccc3c(c2)OCO3)O1` the cytotoxicity call was “inactive”. In the case of `Cc1ccc(S[C@]2(C(=O)NCC(F)(F)F)CC(=O)N(C3Cc4ccccc4C3)[C@@H]2c2ccc(CO)cc2I)cc1`, the cytotoxicity call is reported as “inactive”. With `COCC(=O)Nc1ccc2c(c1)C(=O)N(C)C[C@@H](OC)[C@@H](C)CN(C(=O)Cc1cccnc1)[C@@H](C)CO2` the cytotoxicity call was “inactive”. `C[C@@H]1CN([C@@H](C)CO)C(=O)c2cc(NC(=O)Nc3ccc(C(F)(F)F)cc3)ccc2O[C@@H](C)CCCCO[C@@H]1CN(C)C(=O)Nc1ccc2c(c1)OCO2` was tested, and the cytotoxicity call was “inactive”. With `C[C@@H]1CCCCO[C@H](CN(C)S(C)(=O)=O)[C@@H](C)CN([C@@H](C)CO)C(=O)c2cc(NS(C)(=O)=O)ccc2O1` the cytotoxicity call was “inactive”.
